In the supplement of paper PMC11417369:
± gives the standard deviation of the averaged measurements. The list shows a part of the results.

system: PfAP2-EXP AP2 domain (GST-tagged); experiment: gcPBM binding intensity (ln(normalized median fluorescence intensity)); higher = stronger DNA binding
In short: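 Binding intensity is defined as the maximum Masliner-normalised natural-log median intensity across replicate spots for either probe orientation. It was measured on an Agilent 4 × 180k array of primer-extended double-stranded 36-bp intergenic genomic probes and negative controls, to which GST-tagged P. falciparum DNA-binding domains made in E. coli were applied for 1 h in 1× PBS with 1% milk, 0.2 mg/ml BSA, 0.5% salmon testes DNA and 0.03% Triton X-100. Detection was by Alexa488 anti-GST antibody and scanning at 488 nm.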

Sequence	gcPBM binding intensity (ln)
TTATTATGCTGAGTACGTACTTATATAAGAATAGCA [XGTACX_site2955]	9.01 ± 0.4
AAATTATTTCCGTGTACACATAAATATATATTTTAT [CACACA_site5121]	9.08 ± 0.27
TAAGTTCACAAAAAAAAAAAAAAATAAAGAAATAAA [CACACA_negctrl_site825]	8.31 ± 0.57
TATCATGTCTGTATTTCACACACGGATAATCATTTA [CACACA_site920]	8.42 ± 0.38
TGTTATATTTAATATAGTACATATTATTTTATATAT [XGTACX_site70]	8.34 ± 0.23
AAAAATAAAATATATACATGCATATACATATTATAT [TGCATGCA_site668]	8.44 ± 0.3
ATGTATATAATAAGAACACACATATATTTAATTTAA [CACACA_site2941]	8.33 ± 0.47
TATTCTATATTTCTATTTAGAAAACATCCCAGTGTG [GTGCAC_negctrl_site184]	8.14 ± 0.38
ATACATATATACATACGTACTTATATACATATGTGC [XGTACX_site5268]	8.56 ± 0.18
ATTTATATGCACCATTGTACGTTTTATAAAGTTTGG [XGTACX_site3755]	9.04 ± 0.35
AGAAAATTAAAAAGAACACACAAATATATATAGAAT [CACACA_site3592]	8.96 ± 0.49
AAAATAATATTTAATACACACACCAGTTCTGCAAAT [CACACA_site3736]	8.73 ± 0.43
TAATAAGTAAAAAAATGTACCCGTTAGGTTTAATAA [XGTACX_site638]	8.34 ± 0.34
ACAAAAAGGTAATTTACACACTGCATATAGGAATAA [CACACA_site2929]	8.83 ± 0.59
TTTTTTTATTTTATTTTATTATCTTATGTATCACAA [CACACA_negctrl_site1755]	8.52 ± 0.49
TTTTTCTCTCTCTTATTATACAACAACAAAAAAAAA [GTGCAC_negctrl_site178]	8.43 ± 0.38
AGAAATATATATATATATATATGTGACAATATTTGT [TGCATGCA_negctrl_site282]	8.78 ± 0.47
TTTATATTCTTAAGTGTGCACTATATATATATATAT [GTGCAC_site9719]	10.38 ± 0.049
ACCCTATATGTAACTACACACCGCATATTGTTTACT [CACACA_site3071]	9.19 ± 0.43
TTTGTTCATATTATTGTGCACTTAAACGTAACAAAA [GTGCAC_site9505]	9.115 ± 0.049
AATGTAGCATTTTATCGTACACTTAATACAAAAAAG [XGTACX_site6214]	8.44 ± 0.28
ATGTATGTATATACTTGTACATATTCATATTAGTAT [XGTACX_site1118]	8.45 ± 0.35

Sequence	gcPBM binding intensity (ln)
CAATTACAAAAGAAATGTACTCGTAATAAATAAATA [XGTACX_site1126]	8.8 ± 0.35
TGAAATTTTTATACATGTACAAAATTAAATATAACA [XGTACX_site7324]	8.6 ± 0.39
TATAATAATAATAATAGTACGTATTATTAAAAAACT [XGTACX_site10]	8.59 ± 0.3
ATATTACACATATATGCACACATTGTAGTTATTTAT [CACACA_site8843]	8.81 ± 0.3
TATATATAAAGGTGTACACATATATATATATCTGTA [CACACA_site5311]	8.45 ± 0.17
ATTTCATATTATGTAACACACAACAAGATAATCAAA [CACACA_site1960]	8.46 ± 0.54
ACTTACACAGTTGATGGTACACTTTTATGATTTTGT [XGTACX_site3205]	8.79 ± 0.47
TTTTTTAACCTTTTATGTACACAATATTTAACATTT [XGTACX_site1170]	8.79 ± 0.38
ACAAGTTAAAATATTACACACATATAAATATATATA [CACACA_site3132]	8.38 ± 0.13
ATAAGGTTACAACAAACACACAAAGGAATATACTCA [CACACA_site6108]	8.78 ± 0.54
TTTTATTTACACAGTGGTACTATTAAAAATTAATGA [XGTACX_site6737]	8.45 ± 0.4
TATTTTAACATTAGGTGTACATACAAAAATAAAAAT [XGTACX_site8577]	8.87 ± 0.37
ATAATATGAAAACACACACACACACTAGAAAAAAAA [CACACA_site5153]	8.72 ± 0.58
AAAAAAAAAAATATAACACACAACAAAAAAATATAT [CACACA_site1753]	8.63 ± 0.49
ATTATTTAAATGGATGCACACATGCATTAAATAAAA [CACACA_site5831]	8.48 ± 0.11
AATATTTGTTAAAGAGGTACACCATTTGGTAGGGAA [XGTACX_site2165]	8.71 ± 0.36
TTTTTCTTTTTACATACACACAAAAAAATAAAATAT [CACACA_site581]	8.52 ± 0.47
TTTTTCAAATTTAATACACACACAAGTATATATTTA [CACACA_site9307]	8.18 ± 0.3
TGGTAATTTCTTTGATAAAAATTAATATGTATAAAT [XGTACX_negctrl_site152]	8.2 ± 0.35
AAATTAATATTATGTGCATGCACAAAGAGGAACGAC [TGCATGCA_site754]	10.7 ± 0.18
TCTATTAATTAATATACACACATTAGATATAAATAT [CACACA_site7241]	8.41 ± 0.37
TAATTAAATAAAAAAACACACACATATATACATATA [CACACA_site9141]	8.56 ± 0.4

Sequence	gcPBM binding intensity (ln)
ACACATATATAAATATGTACATATATATATATACAT [XGTACX_site1595]	8.61 ± 0.23
TAATAAAGGTGTAATACACACTATAAAAAGGAATAT [CACACA_site4756]	8.84 ± 0.41
AAAAAACAAAAAATTACACACATATATAAATATATT [CACACA_site2317]	8.12 ± 0.33
ATGTGTATATATTATTGTACATATATATATATATAT [XGTACX_site4627]	10.3 ± 0.2
ACATATATATAAATATATATATATATATATATATAT [CACACA_negctrl_site874]	10 ± 0.56
ATGGTAAGTATTTTATGTACATATATATTTATATAA [XGTACX_site4003]	8.59 ± 0.2
AAAAAAAAAAAAAAAAGTACTAATTGAATATTAAAC [XGTACX_site3383]	8.41 ± 0.37
TACACCCATAGACACACACACACGCATAAAAAAAAA [CACACA_site8428]	8.47 ± 0.4
AGGATACACAGACACACACACATATATATATATATA [CACACA_site907]	10 ± 0.45
TAAATAGATGTTTTATGTACGTATAAATAAAAAAAA [XGTACX_site3412]	8.55 ± 0.38
ATTAAAAATATAGTCACACATACACCCATATATATT [CACACA_site5394]	8.43 ± 0.48
TTTTTTTAAAGACATGCATGTAATATTTAAATCATT [TGCATGCA_site495]	8.93 ± 0.49
AAAAAAAATGGATGATCACACACTTCATAAAAATTG [CACACA_site2213]	8.39 ± 0.56
AATATATTTTTTCACTGTACTTTTATTATATATACA [XGTACX_site8312]	8.97 ± 0.36
ATAATTTTTTGATTTGCATGTAATAAATATATGATA [TGCATGCA_site384]	8.84 ± 0.28
GATTTTTTTTTGTGGACACACAGAAATAAATTTATA [CACACA_site327]	8.57 ± 0.27
ATACAACGATATATATATATACAAATACATATTTAT [CACACA_negctrl_site268]	8.42 ± 0.55
CACATACAGATATATACACACAAATATATATACTCA [CACACA_site4591]	8.36 ± 0.38
ACAACTCGGAAGGTTTGTACTTAAAGTATAATTAAG [XGTACX_site737]	8.43 ± 0.35
TTTGTAAAACTATATTGTACTTTTATATATCTACAA [XGTACX_site5507]	8.44 ± 0.34
TATATACATGCATATACACACATATATTTATTTATA [CACACA_site6327]	8.7 ± 0.33
AATTGGAAGAAAAAAAAGGAAGGAAAGTTATTACAT [GTGCAC_negctrl_site74]	8.62 ± 0.41

Sequence	gcPBM binding intensity (ln)
TCTTGAATAACAAAAAAATGTGCCAACAAAATAAAT [XGTACX_negctrl_site172]	8.79 ± 0.42
TCATACATGGTGTGTTTGCACTTGACCTATATTCAT	8.59 ± 0.35
GTATATATGTATGTATGTACGTATATAGTTATGTAT [XGTACX_site6769]	8.71 ± 0.28
ATAAAAAAATTAAATACATGCACATATACACATACA [TGCATGCA_site129]	8.96 ± 0.31
TTTATTTTTTCCAAGTCACACATGTTTTGATATATT [CACACA_site4946]	8.81 ± 0.4
TACTGAAATAATTATTTAAACGTTTTTATATGTATT [CACACA_negctrl_site487]	8.56 ± 0.43
TAAAAAGTATATAAGAGTACACATATTTATAAATAT [XGTACX_site3084]	8.72 ± 0.28
AGACTTTGTACAAACACACACATGAGCACAATATTA [CACACA_site6755]	8.88 ± 0.5
TATATATCAATATGCACACACAAGAAGTAATTATAA [CACACA_site7487]	8.89 ± 0.37
ATAAACAAAGTTAAATGTACAAAGGGGTAAAAAAAA [XGTACX_site83]	9.05 ± 0.78
AACAAATTTTTTTTTCCTTTTTTTTTTTTACTTCAT [CACACA_negctrl_site1214]	8.31 ± 0.71
TTTTTTTTTCGGAAAAGTACAAAACTTTTTTATAAT [XGTACX_site4670]	8.26 ± 0.33
AAATAAATAATATGTAAACACACAAAAAATAAAAAT [CACACA_site8307]	8.77 ± 0.45
TTATTAACCAAACGCACATGCAAAATATATTATATA [TGCATGCA_site915]	8.9 ± 0.34
ACACAATTGAAATAGTGTACAAAATGTTGTTACATA [XGTACX_site8671]	8.38 ± 0.33
TTTTTTTTTTTCGGGGGTACTAATATATTATTAATA [XGTACX_site7809]	10.4 ± 0.34
GTTTTTAAGAAAAACACACACTCCTGTTATTTTATA [CACACA_site3696]	8.41 ± 0.4
AACAAAATTGAAGGAACACACATACAGATATATATA [CACACA_site4264]	8.91 ± 0.38
ATAGAAAAAATATACACACACTTATTAAATAAAAAT [CACACA_site7540]	8.69 ± 0.33
TAATAATTAATTAATATAATATTTTTTCATAATTAT [XGTACX_negctrl_site602]	8.22 ± 0.4
CATGTGCATATTAAATGTACATATATACATATATAC [XGTACX_site857]	8.835 ± 0.064
ATATAGGTATTTAATACACACAAAACTTTCATTCCA [CACACA_site7627]	8.41 ± 0.38
